# Data as given in PubChem BioAssay AID1508642 (National Center for Advancing Translational Sciences (NCATS), 2021).
# About 200 (0.47%) of roughly 43,000 compounds were called active. Inconclusive results (about 12%) are left out. The call rests on the fitted dose curve; in most records, active means well fitted cell-killing curve with a large enough effect; inconclusive means small, poorly fitted or top-dose-only effect, or effect the other way; inactive means flat fitted curve, though single readings scatter. Some of the results follow.
# Assay: Cell viability qHTS assay in S16 Pmp22-F2sN cells; further: nearly all actives have a fitted effect of over 65% in size
# Settings: S16 Pmp22-F2sN Schwann cells (luciferase reporters placed in the Pmp22 gene) viability, CellTiter-Glo, 24 h; series mostly up to 57.5 µM; activity change, negative = cytotoxicity: at the top concentration
# Summary of the method: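 S16 Schwann cells carrying the Pmp22-F2sN reporter, seeded in 1536-well format, were exposed to library compounds for 24 h at 37C. Viability was read as CellTiter-Glo luminescence after 15 min at room temperature.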
# On the % scale 0 is the no-effect control and ±100 the full control effect.
row,SMILES,"activity change, negative = cytotoxicity"
1,O=C(CSc1nc2c(c(=O)[nH]1)CN(Cc1ccc(F)cc1)CC2)Nc1ccccc1Cl,inactive: 2.53%
2,CCOC(=O)C1CCN(S(=O)(=O)c2cc3c4c(c2)CC(=O)N4CCC3)CC1,inactive: -23.2%
3,CCCNC(=O)c1c(C)nn(-c2cccc(C)c2)c1-n1cccc1,inactive: 0.125%
4,COc1cccc(C(=O)N2c3nc(-c4ccco4)nn3C3(CCCCC3)[C@@H]3CCCC[C@@H]32)c1,inactive: -14.4%
5,CCCCn1cc2c(c1-c1ccccc1Br)c(=O)n(C)c(=O)n2C,inactive: 3.66%
6,Cc1nc(N2CCOCC2)c2c(C(=O)NCCc3ccccc3)c(C)oc2n1,inactive: -1.64%
7,Cc1ccc(C(=O)n2nc(-c3ccco3)nc2NCc2cccs2)cc1,inactive: -4.07%
8,O=C(CCC(=O)N1CC2CCCN2c2ccccc21)NCc1cccc(Cl)c1 (configuration not stated),inactive: -6.05%
9,COc1cc2c(=O)n(Cc3ccccc3Cl)c(=O)n(CC(=O)Nc3ccccc3)c2cc1OC,inactive: 6.91%
10,COc1ccc(C)cc1NC(=O)C1CCN(S(=O)(=O)c2c(C)noc2/C=C/c2ccco2)CC1,inactive: 11.2%
11,COc1cccc(-n2c(-c3ccc(Cl)cc3)cc3c2CC(C)(C)CC3=O)c1,inactive: -5.61%
12,O=C(Nc1ccc(F)cc1F)C(Cc1ccccc1)N1Cc2ccccc2C1=O (configuration not stated),inactive: -13.9%
13,COc1ccc(CN2C(=O)c3oc4ccc(F)cc4c(=O)c3C2c2ccc(O)cc2)cc1 (configuration not stated),inactive: -0.73%
14,Cc1ccc(C(=O)Nc2nc3ccc(S(=O)(=O)N4CCCC4)cc3s2)cc1,inactive: -11.3%
15,Cc1ccc(-c2nnc(SCC(=O)NC3CCCC3)nc2-c2ccc(C)cc2)cc1,inactive: -2.21%
16,CSc1ccc(CNC(=O)C2CCCN(S(=O)(=O)N(C)c3ccc(F)cc3)C2)cc1 (configuration not stated),inactive: -0.325%
17,CCOc1ccc(CCNC(=O)CCCn2c(=O)c3cccn3c3cccnc32)cc1OCC,inactive: 16.7%
18,CCc1ccc2c(c1)c(=O)c(S(=O)(=O)c1ccc(Cl)cc1)cn2CC,inactive: -6.82%
19,COc1ccc(OCC(=O)Nc2cc(-c3ccccc3F)nn2-c2ccccc2)cc1,inactive: -29.2%
20,CCc1ccc(CNC(=O)c2cc3cc(S(=O)(=O)N4CCCCC4)ccc3n2C)cc1,inactive: -15.7%
21,Cc1ccc(S(=O)(=O)NCC2CCC(C(=O)NCc3ccc(F)cc3)CC2)cc1 (configuration not stated),inactive: 0.183%
22,CCCn1ccc2c(OCC(=O)Nc3cc(C)ccc3C)cccc2c1=O,inactive: -22.2%
23,Nc1c(C(=O)NCc2ccc(Cl)cc2Cl)nnn1Cc1ccc(Br)cc1,inactive: -9.56%
24,Cc1ccc2c(=O)cc(C(=O)Nc3ccc(S(=O)(=O)N4CCC(C)CC4)cc3)oc2c1C,inactive: -2.21%
25,COCCCn1c(=N)c(C(=O)NCC2CCCO2)cc2c(=O)n3cc(C)ccc3nc21 (configuration not stated),inactive: 26%
26,Cc1ccc(Nc2c(-c3ccc(N(C)C)cc3)nc3nc[nH]n23)cc1,inactive: -4.43%
27,COc1ccc(-c2nc3ccccc3n3c(-c4cccc(C)c4)c4c(=O)n(C)c(=O)n(C)c4c23)cc1,inactive: 7.12%
